Data: PubChem BioAssay AID1347165 (National Center for Advancing Translational Sciences (NCATS), 2019)
Screen size: about 220,000 compounds; about 5,700 (2.6%) were called active. The inconclusive results got no clear call from the source; some entries with a clear call stand among them for comparison. The call rests on the fitted dose curve; in most records, active means well fitted inhibition curve with a large enough effect; inconclusive means small, poorly fitted or top-dose-only effect; inactive means no such curve, though single readings can be large or run the other way. Potencies beside an inconclusive call are fits to weak or partial responses and may not hold up.

Target: Lysine-specific demethylase 5B (Homo sapiens) (UniProt Q9UGL1)
Experiment: Primary screen for KDM5B Histone Demethylases FDH-coupled qHTS; further: nearly all actives have a fitted effect of over 70% in size; on activity change, negative = inhibition: 0% is about no effect
Details: FDH-coupled NADH fluorescence (FDH is formaldehyde dehydrogenase); activity change, negative = inhibition: at 57.7 µM (top of the series) unless noted
Procedure, shortened: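 Measured: NADH fluorescence change, 30 min, RT. System: KDM5BΔAP 200 nM final, H3K4me3 peptide, α-KG, Fe(II), ascorbate, NAD⁺ plus FDH, pH 7.5 HEPES. Compounds: titrated, 10 min pre-incubation with enzyme.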
Potency means the concentration at half of the fitted maximal effect; tags describe the fitted curve by direction and shape.

UniProt Q9UGL1, sequence (Q9UGL1 whole entry, looked up): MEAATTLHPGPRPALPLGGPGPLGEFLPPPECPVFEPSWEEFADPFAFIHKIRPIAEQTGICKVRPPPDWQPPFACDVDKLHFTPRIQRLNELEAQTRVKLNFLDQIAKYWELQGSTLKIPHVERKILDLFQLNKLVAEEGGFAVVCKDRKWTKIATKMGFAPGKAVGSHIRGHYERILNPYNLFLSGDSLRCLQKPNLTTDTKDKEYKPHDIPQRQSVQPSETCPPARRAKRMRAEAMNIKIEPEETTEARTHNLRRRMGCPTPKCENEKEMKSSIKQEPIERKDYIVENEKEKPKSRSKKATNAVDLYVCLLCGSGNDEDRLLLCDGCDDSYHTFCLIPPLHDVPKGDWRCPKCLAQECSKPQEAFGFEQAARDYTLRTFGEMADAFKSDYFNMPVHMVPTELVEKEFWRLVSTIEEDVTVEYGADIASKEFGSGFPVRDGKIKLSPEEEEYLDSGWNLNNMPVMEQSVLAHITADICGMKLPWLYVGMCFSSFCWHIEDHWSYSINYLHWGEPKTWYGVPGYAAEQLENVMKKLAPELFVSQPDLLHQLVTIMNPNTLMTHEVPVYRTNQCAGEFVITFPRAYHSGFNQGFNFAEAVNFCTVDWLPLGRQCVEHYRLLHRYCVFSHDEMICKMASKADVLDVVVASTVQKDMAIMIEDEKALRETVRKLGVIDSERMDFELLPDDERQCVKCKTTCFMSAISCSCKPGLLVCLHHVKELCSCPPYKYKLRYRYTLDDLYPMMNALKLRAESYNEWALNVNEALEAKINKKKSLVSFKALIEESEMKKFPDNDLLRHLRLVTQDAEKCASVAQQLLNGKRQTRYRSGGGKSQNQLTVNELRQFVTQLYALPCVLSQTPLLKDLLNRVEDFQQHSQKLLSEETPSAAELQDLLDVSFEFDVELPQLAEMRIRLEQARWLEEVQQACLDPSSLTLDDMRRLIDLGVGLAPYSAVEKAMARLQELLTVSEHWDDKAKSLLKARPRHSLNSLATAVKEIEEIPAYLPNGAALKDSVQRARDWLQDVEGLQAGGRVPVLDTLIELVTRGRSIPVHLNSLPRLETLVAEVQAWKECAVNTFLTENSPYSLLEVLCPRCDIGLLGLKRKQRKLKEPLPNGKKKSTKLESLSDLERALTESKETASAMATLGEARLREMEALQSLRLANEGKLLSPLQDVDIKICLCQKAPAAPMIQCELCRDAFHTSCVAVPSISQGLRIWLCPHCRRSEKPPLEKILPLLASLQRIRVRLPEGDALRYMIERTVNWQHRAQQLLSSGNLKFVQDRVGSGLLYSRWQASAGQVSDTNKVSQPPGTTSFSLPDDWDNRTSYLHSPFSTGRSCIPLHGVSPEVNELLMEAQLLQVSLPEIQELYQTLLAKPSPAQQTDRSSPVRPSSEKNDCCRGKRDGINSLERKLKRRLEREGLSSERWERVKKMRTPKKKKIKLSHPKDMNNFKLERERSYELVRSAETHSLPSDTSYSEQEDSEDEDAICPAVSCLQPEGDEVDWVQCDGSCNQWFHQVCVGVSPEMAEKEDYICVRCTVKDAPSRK

SMILES	Potency	activity change, negative = inhibition
CCn1c2ccccc2c2cc(CNCCc3c[nH]c4ccccc34)ccc21	inconclusive: 28.2 µM [inhibitor, partial curve, poor fit]	
Cc1ccc2[nH]c(=O)c(COC(=O)C3CCCCC3)cc2c1	inconclusive: 39.8 µM [inhibitor, single point]	
CCCN(CCC)CCCNC(=O)c1cc2c(=O)[nH]c3ccccc3c2n1C	inconclusive: 31.6 µM [inhibitor, partial curve, poor fit]	
COc1cccc(-n2c(=O)c3sc4ccccc4c3n(CC(=O)Nc3ccccc3C)c2=O)c1	inconclusive: 11.2 µM [inhibitor, partial curve, poor fit]	
CCN1CCN(c2cc(C)c3cc(NC(=O)CCC(=O)N4CCN(c5ccccc5OC)CC4)ccc3n2)CC1	inconclusive: 39.8 µM [inhibitor, single point]	
CC(C)Oc1ccc(C(=O)Nc2cccc3ncccc23)cc1		inactive: 21%
O=C(O)C(Cc1cccs1)c1ccccc1 (stereo not drawn)		inactive: -24.6%
Cc1ccccc1NC(=O)C1CC(=O)Nc2nc(SCc3ccccc3)nn21 (stereo not drawn)		inactive: 0.918%
COc1ccc(CN2C(=O)[C@@H]3C[C@@H](CN3C3CCCC3)Oc3ccccc32)cc1	inconclusive: 28.2 µM [inhibitor, single point]	
O=C1Nc2ccccc2CC12CCN2[S+](=O)([O-])c1cccs1 (stereo not drawn)		inactive: 33.5% [at 86.2 µM]
Cc1ccc2c(c1)N(CCCC(=O)NCc1cccc(F)c1)C(=O)CO2	inconclusive: 2.24 µM [inhibitor, partial curve, poor fit]	
O=C(NC1CCCc2c1[nH]c1c(Cl)cccc21)c1ccc2c(c1)OCO2 (stereo not drawn)		inactive: -27%
CCOC(=O)c1ccc(OC(=O)c2cn(-c3cccc(OC)c3)c(=O)c3ccccc23)cc1	inconclusive: 28.2 µM [inhibitor, single point]	
N#Cc1ccc(-c2nc(C3CC(=O)N(c4ccc(F)cc4)C3)no2)cc1 (stereo not drawn)	inconclusive: 22.4 µM [inhibitor, single point]	
COc1cccc(CCC(=O)N2CCN(c3cc(-c4ccccc4)[nH]n3)CC2)c1	inconclusive: 28.2 µM [inhibitor, partial curve, poor fit]	
O=S(=O)(CCN1CCN(c2ccc(O)cc2)CC1)c1ccccc1	inconclusive: 22.4 µM [inhibitor, partial curve, poor fit]	
COc1cc(/C=C/c2nc(C#N)c(N3CCC(C)CC3)o2)cc(OC)c1OC	inconclusive: 3.98 µM [inhibitor, full curve, poor fit]	
COc1cccc(OC(=O)CSc2nnc(-c3ccc4c(c3)OCO4)o2)c1	inconclusive: 14.1 µM [inhibitor, partial curve, poor fit]	
COc1cc(NC(=O)Cn2c(-c3ccc(F)cc3)nc(C)cc2=O)cc(OC)c1	inconclusive: 0.631 µM [inhibitor, partial curve, poor fit]	
CC(C)c1nnc2ccc(SCC(=O)O)nn12		inactive: 5.28%
COc1ccc(-c2nc3cnccc3o2)cc1NC(=O)c1cccnc1		inactive: -5.77%
COc1ccccc1NC(=O)CSc1sc2c(O)cc(=O)[nH]c2c1C#N	inconclusive: 22.4 µM [inhibitor, single point]	

SMILES	Potency	activity change, negative = inhibition
CCNc1ncnc2sc3c(c12)CCN(Cc1ccco1)C3	inconclusive: 14.1 µM [inhibitor, partial curve, poor fit]	
O=C(OCc1cccc(Cl)c1)c1ccc(N2CCOCC2)nc1		inactive: -16.1%
CC12CC3(C)CC(N)(C1)CC(C(=O)O)(C2)C3		inactive: -0.603%
CCCCn1nnnc1CSc1nnc(-c2cccc(C)c2)n1-c1ccccc1		inactive: 14.7%
O=C1NC2(CCN(C(=O)c3ccccc3)CC2)Oc2ccccc21		inactive: -12.9% [at 86.2 µM]
O=C(c1cnn2cccnc12)N(Cc1ccncc1)Cc1cccc(OCCc2ccc(F)cc2)c1	inconclusive: 22.4 µM [inhibitor, single point]	
COCC(=O)N1CC[C@@H](CC(=O)O)[C@@H](CC2=NCCc3cc(OC)ccc32)C1	inconclusive: 28.2 µM [inhibitor, partial curve, poor fit]	
Cc1nn(-c2nc3c(c(=O)n(Cc4cccc(Cl)c4)c(=O)n3C)n2C(C)C)c(C)c1C	inconclusive: 39.8 µM [inhibitor, partial curve, poor fit]	
CCc1ccccc1N(C)S(=O)(=O)c1ccc(/C=C\c2onc(C)c2NC(=O)C2CC2)cc1		inactive: -144%
COCc1nc(CCNC(=O)c2cnn3c(C)c(Cc4ccccc4Cl)c(C)nc23)no1	inconclusive: 22.4 µM [inhibitor, partial curve, poor fit]	
CCc1cccc(NC(=O)CN(C)S(=O)(=O)c2cccc3cccnc23)c1	inactive	
COCCNc1nc2c(S(=O)(=O)c3cc(C)ccc3C)nnn2c2ccccc12	active: 79.4 µM	
CC(=O)c1cc(Cl)ccc1OC(=O)c1ccc(C)cc1		inactive: -5.68%
CCOC(=O)C1=C(C)N=C2SC=C(CC(=O)NC3CC3)N2C1c1ccccc1C (stereo not drawn)	inconclusive: 28.2 µM [inhibitor, partial curve, poor fit]	
CCN(CC)CC1CCN(C(=O)c2cccc(C#N)c2)CC1		inactive: 12.7%
O/N=C(/c1ccccc1)c1cc2cc(Br)cc(Br)c2o1	inconclusive: 25.1 µM [inhibitor, partial curve, poor fit]	
CC(Oc1ccccc1F)C(=O)Nc1ccc(-c2nc3ccccc3s2)cc1 (stereo not drawn)	inconclusive: 1.12 µM [inhibitor, full curve, poor fit]	
CC(=O)Nc1cccc(-c2nc3ccccc3o2)c1	inconclusive: 25.1 µM [inhibitor, single point]	
COc1ccc(NCc2cc3ccc(OC)cc3n(CC(=O)Nc3cc(Cl)ccc3C)c2=O)cc1	inconclusive: 5.01 µM [inhibitor, full curve, poor fit]	
COc1ccc(-c2cc(-c3cccc(CO)c3)cn3cncc23)cc1	inconclusive: 39.8 µM [inhibitor, partial curve, poor fit]	
Cc1ccc(S(=O)(=O)N2CCN(C(C(=O)NC3CC3)c3ccccc3)CC2)cc1 (stereo not drawn)		inactive: 20.4%
